# Data taken from PubChem BioAssay AID1745845 (National Center for Advancing Translational Sciences (NCATS), 2022).
# In all, about 360,000 compounds went through this assay and about 2,600 (0.72%) were called active. The inconclusive results got no clear call from the source; some entries with a clear call stand among them for comparison. The call rests on the fitted dose curve; in most records, active means well fitted inhibition curve with a large enough effect; inconclusive means small, poorly fitted or top-dose-only effect; inactive means no such curve, though single readings can be large or run the other way. Potencies of inconclusive entries are doubtful fits and often do not repeat.
# Assay: Primary qHTS for Inhibitors of ATXN expression; further: nearly all actives have a fitted effect of over 55% in size
# Details: HEK-293 ATXN2-luciferase reporter, luminescence, 24 h; activity change, negative = inhibition: at 57 µM (top of the series)
# How it was run: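 ATXN2-luciferase reporter cells (luciferase flanked by upstream and downstream ATXN2 gene portions) were treated 24 h at 37 °C with compounds at up to 57 uM. SteadyGlo luminescence gave expression; GF-AFC fluorescence gave viability.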
# On the % scale 0 is the no-effect control and ±100 the full control effect; potency means the concentration at half of the fitted maximal effect; tags describe the fitted curve by direction and shape.
Compound,Potency,"activity change, negative = inhibition"
COc1cc(/C=N/Nc2nc(N3CCCC3)nc(N3CCCC3)n2)ccc1O,inactive,
COCc1ccc(CN2CCC(C(=O)Nc3cccc(-c4cccc(Cl)c4)c3)CC2)o1,"inconclusive: 35.5 µM [inhibitor, partial curve, poor fit]",
Cc1cc(NC(=O)CSc2nc(C(C)C)nc3sc4c(c23)CCC(C)C4)no1 (configuration not stated),"inconclusive: 31.6 µM [inhibitor, partial curve, poor fit]",
O=C(NN=C1CCCC1)c1cc(Br)ccc1O,inactive,
CCn1nc(C)c(CN2CCC(n3nccc3NC(=O)c3ccc4c(c3)OCO4)CC2)c1C,inactive,
COc1cccc(C(=O)Oc2ccccc2/C=C\C(=O)c2cc3ccccc3o2)c1,"inconclusive: 31.6 µM [inhibitor, single point]",
O=C(NC(c1ccc(-c2ccccc2)cc1)c1cnccn1)C1CCN(CCOc2ccc(Cl)cc2Cl)CC1 (configuration not stated),"inconclusive: 39.8 µM [inhibitor, single point]",
O=C(c1cc(C2CC2)nc2ccc(Br)cc12)N1N=C(C(F)F)CC1(O)C(F)F (configuration not stated),"inconclusive: 31.6 µM [inhibitor, single point]",
Cc1ccccc1NC(=O)CSc1n[nH]c(-c2ccccn2)n1,active: 22.4 µM,
CCOC(=O)c1c(NC(=O)/C=C/c2ccc(OCC)c(OC)c2)sc2c1CCC2,inactive,
CN(C)CCCNc1cc(O)c2ncccc2c1,active: 20 µM,
CCN(CCCNC(=O)CSc1cc(=O)n(C)c2cc(Cl)ccc12)Cc1ccccc1,"inconclusive: 14.1 µM [inhibitor, partial curve, poor fit]",
Cc1ccc(Cl)cc1N(CC(=O)N1CCCCCC1)S(C)(=O)=O,"inconclusive: 39.8 µM [inhibitor, partial curve, poor fit]",
Clc1ccccc1-c1ccc(CN2CCN(c3ccccc3)CC2)o1,"inconclusive: 35.5 µM [inhibitor, single point]",
Cc1ccc(NC(=O)c2cc(S(=O)(=O)NCCC3=CCCCC3)ccc2F)cc1C,"inconclusive: 22.4 µM [inhibitor, single point]",
O=C(CSc1ccc(Cl)cc1)N1CCN(c2ccc([N+](=O)[O-])cc2Cl)CC1,"inconclusive: 39.8 µM [inhibitor, partial curve, poor fit]",
CCCCOC(=O)Nc1ccc(N2CCCCC2)cc1,inactive,
COc1ccc(CCNC(=O)c2cc3cccc(OC)c3oc2=O)cc1OC,,inconclusive: -46.4% [inhibitor]
COc1ccc(-c2ccc3c(N4CCOCC4)nc(N4C[C@@H](C)O[C@@H](C)C4)nc3n2)cc1CO,"inconclusive: 6.11 µM [inhibitor, full curve]",
O=C1CS/C(=C/C(=O)c2cccc(Cl)c2)N1,"inconclusive: 4.23 µM [inhibitor, partial curve, poor fit]",
Cc1oc(-c2ccc(Cl)cc2)nc1CN1CCC(C(=O)NCCCN2CCCC(C)C2)CC1 (configuration not stated),"inconclusive: 28.2 µM [inhibitor, partial curve]",
CCOc1cc(/C=N/NC(=O)c2nn(C)cc2Br)ccc1OCc1ccccc1,inactive,
O=C(C1CCN(Cc2ccc(F)cc2)CC1)N1CCN(C/C=C/c2ccccc2)CC1,"inconclusive: 5.01 µM [inhibitor, partial curve, poor fit]",

Compound,Potency,"activity change, negative = inhibition"
O=C(NC(Nc1ncc(S(=O)(=O)c2ccc([N+](=O)[O-])cc2)s1)(C(F)(F)F)C(F)(F)F)c1ccc(Cl)cc1,active: 14.1 µM,
O=C(/C=C/c1ccccc1Cl)Nc1cccc(S(=O)(=O)NC2=NCCCCC2)c1,inactive,
COC(=O)C1=C(C)N(Cc2ccccc2)C(=NCCCCO)N[C@H]1CCc1ccccc1,inactive,
CCC(=O)Nc1ccc2nc(C3CC3)n(Cc3ccc(C(C)(C)C)cc3)c(=O)c2c1,inactive,
COC(=O)c1ccccc1-c1c2ccc(=N)cc-2oc2cc(N)ccc12,"inconclusive: 12.6 µM [inhibitor, partial curve]",
CC(C)C[C@H]1CNC(=S)N1CC1CCCN1C[C@H](CC(C)C)N1C[C@H](Cc2ccc(O)cc2)N(CC2CCCCC2)C1=S (some centres not stated),"inconclusive: 35.5 µM [inhibitor, single point]",
C=CCOc1c(Br)cc(CNc2nccs2)cc1OC,inactive,
COc1ccc(C2CC(=O)Oc3cc(OC)ccc32)cc1 (configuration not stated),inactive,
COc1ccc(-c2sc3cc(OC)c(OC)cc3c2-c2ccc(O)cc2)cc1,"inconclusive: 39.8 µM [inhibitor, single point]",
O=C(C[n+]1cccc(Br)c1)c1cccs1,inactive,
CCOc1ccccc1N1CCN(C(=S)NC(=O)C23CC4CC(CC(C4)C2)C3)CC1,"inconclusive: 14.1 µM [inhibitor, partial curve, poor fit]",
O=C(c1sccc1Cl)N1CCN(Cc2ccc3c(c2)OCO3)CC1,inactive,
COc1cc(Cl)c(C)cc1NCC(=O)Nc1cccc(S(=O)(=O)N2CCCC2)c1,"inconclusive: 15.8 µM [inhibitor, single point]",
Cc1ccc(-c2nc3cc(NC(=O)c4cc5ccccc5o4)ccc3o2)cc1Cl,inactive,
CCCc1nnc(NC(=O)CN2C(=O)c3ccccc3C2=O)s1,"inconclusive: 14.1 µM [inhibitor, partial curve, poor fit]",
Cc1onc(NC(=O)c2ccc(Cl)cc2Cl)c1Br,inactive,
NS(=O)(=O)c1ccc(CCNc2nn3c(-c4ccc(F)c(Cl)c4)cnc3s2)cc1,"inconclusive: 20 µM [inhibitor, partial curve]",
Cc1cccc(NC(=O)CSc2ncc(-c3ccc(Br)cc3)[nH]2)c1,"inconclusive: 17.8 µM [inhibitor, partial curve, poor fit]",
COC(=O)[C@@]12CCCCN1[C@H](c1ccc(SC3CCCCC3)c(OC)c1)[C@@H]1C(=O)N(C)C(=O)[C@@H]12,"inconclusive: 39.8 µM [inhibitor, single point]",
COc1ccc(Nc2ncnc3c2cnn3Cc2ccccc2)cc1OC,"inconclusive: 20 µM [inhibitor, partial curve, poor fit]",
CCCCCCCCCCCCCC[N+](C)(C)C,active: 22.4 µM,
O=C(O)CCCN1C(=O)/C(=C/c2cn(-c3ccccc3)nc2-c2cccs2)SC1=S,inactive,
O=C(c1ccc(Cl)c(Cl)c1)N1CCC(=O)N(C(COCc2cccc(Cl)c2)Cc2ccccc2)CC1 (configuration not stated),"inconclusive: 20 µM [inhibitor, single point]",

Compound,Potency,"activity change, negative = inhibition"
Cc1csc2nc(COC(=O)CNC(=O)c3ccc(F)cc3)cc(=O)n12,inactive,
Cc1[nH]n(-c2ccccc2)c(=O)c1/C=N\NC(=O)C1COc2ccccc2O1 (configuration not stated),"inconclusive: 25.1 µM [inhibitor, single point]",
COc1ccc(NC(=O)c2ccccc2Cl)cc1NC(=O)CN1CCOCC1,inactive,
COc1cccc(/C=C2\SC(=S)N(CCCC(=O)N(CCO)c3ccccc3)C2=O)c1,active: 22.4 µM,
O[C@@H]1[C@@H](O)C=C2CCN3Cc4cc5c(cc4[C@H]1C23)OCO5 (some centres not stated),active: 3.55 µM,
CCC(=O)Nc1sc(Cc2ccccc2)c(C)c1C(N)=O,,inactive: -15.4% [at 11.3 µM]
COc1ccc(OC)c(NC(=O)Cc2csc(NC(=O)Nc3ccccc3OC)n2)c1,"inconclusive: 31.6 µM [inhibitor, single point]",
CCC1=Nc2cc(C(=O)NCCc3ccc(OC)c(OC)c3)ccc2Sc2ccccc21,"inconclusive: 39.8 µM [inhibitor, single point]",
CCc1ccc(C(=O)CC2(O)C(=O)N(CCc3ccccc3)c3ccc(Br)cc32)cc1 (configuration not stated),"inconclusive: 39.8 µM [inhibitor, single point]",
CCc1ccccc1S(=O)(=O)Cc1ccc(C(=O)NCc2ccc(Cl)cc2)o1,"inconclusive: 39.8 µM [inhibitor, single point]",
COCCn1c(CN2CCN(c3cccc(Cl)c3)CC2)nc2c1c(=O)n(C)c(=O)n2C,inactive,
Cc1cc(C(C)(C)C)oc1C(=O)N(CC(=O)NC1CCCC1)c1cccc(C(F)(F)F)c1,"inconclusive: 35.5 µM [inhibitor, single point]",
COc1ccc(N(CC(=O)NC2CCCC2)C(=O)c2ccc(N3CCCCC3)nc2)cc1,inactive,
COc1ccc(-c2cn(CCc3c[nH]c4ccccc34)nn2)cc1,"inconclusive: 3.98 µM [inhibitor, partial curve]",
CCc1ccc(NCc2cc3ccc(OC)cc3n(CC(=O)Nc3ccccc3C)c2=O)cc1,inactive,
CCOC(=O)N1CCC(N(CCN(C)C)C(=S)Nc2cccc(Cl)c2)CC1,inactive,
COc1cc(NC(=O)c2cccc3c(-c4cnn(C)c4)coc23)cc(OC)c1OC,active: 17.8 µM,
COc1ccc(CC(N)c2csc(Nc3cnccn3)n2)cc1 (configuration not stated),"inconclusive: 39.8 µM [inhibitor, partial curve, poor fit]",
C=CC[C@H](CC(=O)N(CCO)Cc1ccccc1)C(=O)N[C@H](COC(=O)[C@@H](CC=C)Cc1ccc(F)cc1)Cc1ccccc1,"inconclusive: 39.8 µM [inhibitor, single point]",
CN(C)C(=O)CCc1ccc2c3c([nH]c2c1)[C@]1(CCC2CCCC2)[C@@H](C(=O)N2CCOCC2)C[C@H](CC(=O)NCc2cccc(C(F)(F)F)c2)C(=O)N1CC3,"inconclusive: 31.6 µM [inhibitor, single point]",
CCc1sc2nc(SCC(=O)Nc3cc(C)on3)n(-c3cccc(OC)c3)c(=O)c2c1C,"inconclusive: 25.1 µM [inhibitor, partial curve, poor fit]",
